One test relates to HSkMC. The experiment in a line: cytotoxicity call (relative viability < 0.9). Conditions: 10 µM.
The subject of a further test is HepG2. As to the kind of experiment: cytotoxicity call (relative viability < 0.9). Conditions: 10 µM.
The subject of another test is S. aureus RN4220. As to the kind of experiment: growth inhibition call (relative growth <= 0.2). Conditions: 50 µM.

Some of the results follow.

As for `CNC[C@H]1OCCCC[C@H](C)Oc2ccc(NC(=O)CCCN(C)C)cc2C(=O)N([C@H](C)CO)C[C@@H]1C`, the cytotoxicity call in the test on HSkMC and in the test on HepG2 was “inactive” each time. The growth inhibition call in the test with S. aureus RN4220 was “inactive”.
Consider `C[C@@H]1CCCCO[C@@H](CN(C)S(=O)(=O)c2ccccc2)[C@@H](C)CN([C@H](C)CO)C(=O)c2cc(NC(=O)Nc3ccc(F)cc3)ccc2O1`, for which the cytotoxicity call in the test on HSkMC and with HepG2 was “inactive” each time. The growth inhibition call in the test on S. aureus RN4220 was “inactive”.
Consider `C[C@H](CO)N1C[C@H](C)[C@@H](CN(C)C(=O)Nc2ccc3c(c2)OCO3)Oc2c(NC(=O)c3ccc(-c4nccs4)cc3)cccc2C1=O`, for which the cytotoxicity call in the test with HSkMC and in the test with HepG2 was “inactive” each time. Also, the growth inhibition call in the test with S. aureus RN4220 is “inactive”.
Take `CC(C)NC(=O)Nc1ccc2c(c1)C(=O)N([C@@H](C)CO)C[C@@H](C)[C@H](CN(C)S(=O)(=O)c1ccc(F)cc1)O2`: the cytotoxicity call with HSkMC and with HepG2 was “inactive” each time. For the same compound, the growth inhibition call with S. aureus RN4220 is “inactive”.
In the case of `C[C@@H]1CN([C@@H](C)CO)C(=O)Cc2cc(NC(=O)CCCCCC(=O)Nc3ccccc3N)ccc2O[C@@H]1CN(C)C(=O)Nc1ccc(F)cc1`, the cytotoxicity call with HSkMC and in the test with HepG2 was “inactive” each time. For the same compound, the growth inhibition call in the test with S. aureus RN4220 is “inactive”.
On to `CC(C)NC(=O)N(C)C[C@H]1Oc2cc(C#Cc3cccc(F)c3)ccc2S(=O)(=O)N([C@@H](C)CO)C[C@@H]1C`, for which the cytotoxicity call in the test on HSkMC and in the test on HepG2 was “inactive” each time. Further, the growth inhibition call in the test with S. aureus RN4220 was “inactive”.
On to `C[C@H](CO)N1C[C@H](C)[C@H](CN(C)C(=O)c2ccccc2)Oc2cc(Br)ccc2S1(=O)=O`, for which the cytotoxicity call in the test with HSkMC and in the test on HepG2 was “inactive” in each case. The growth inhibition call in the test with S. aureus RN4220 is “inactive”.
As for `C[C@@H]1CCCCO[C@@H](CN(C)C(=O)Nc2ccc(F)cc2)[C@@H](C)CN([C@@H](C)CO)C(=O)c2cc(NC(=O)Nc3ccccc3)ccc2O1`, the cytotoxicity call in the test with HSkMC and with HepG2 was “inactive” in each case. Further, the growth inhibition call with S. aureus RN4220 was “inactive”.
As to `O=C(c1ccccc1F)N1CCNCC1`, the cytotoxicity call in the test with HSkMC and in the test on HepG2 was “inactive” each time. Further, in the test with S. aureus RN4220, the growth inhibition call was “inactive”.
As to `C[C@@H]1CCCCO[C@H](CN(C)S(=O)(=O)c2cccs2)[C@H](C)CN([C@@H](C)CO)C(=O)c2cc(NC(=O)c3ccccc3)ccc2O1`, the cytotoxicity call in the test on HSkMC and with HepG2 was “inactive” each time. For the same compound, the growth inhibition call with S. aureus RN4220 is “inactive”.
Regarding `CN1CCN(C(=O)[C@H]2[C@H](CO)[C@H]3Cn4c(cccc4=O)[C@@H]2N3Cc2ccncc2)CC1`, the cytotoxicity call in the test with HSkMC and in the test on HepG2 was “inactive” throughout. In addition, the growth inhibition call in the test with S. aureus RN4220 is “inactive”.
For `C[C@@H](NC(=O)C[C@H]1CC[C@H](NC(=O)CN2CCOCC2)[C@@H](CO)O1)c1ccccc1`, the cytotoxicity call in the test with HSkMC and in the test with HepG2 was “inactive” each time. For the same compound, the growth inhibition call in the test on S. aureus RN4220 is “inactive”.
For `CCSc1nc(-c2ccc(C)cc2)cc(C(F)(F)F)c1C#N`, the cytotoxicity call in the test on HSkMC and with HepG2 was “inactive” throughout. The growth inhibition call with S. aureus RN4220 is “inactive”.
With `CN(C)c1ccc(C(=C2C=CC(=[N+](C)C)C=C2)c2ccc(N(C)C)cc2)cc1.[Cl-]`, the cytotoxicity call in the test with HSkMC and in the test with HepG2 was “active” each time. Also, the growth inhibition call in the test on S. aureus RN4220 was “inactive”.
Regarding `C[C@H](CO)N1C[C@H](C)[C@H](CN(C)S(=O)(=O)c2ccc(Cl)cc2)OCCCC[C@H](C)Oc2ccc(NC(=O)c3ccncc3)cc2C1=O`, the cytotoxicity call in the test with HSkMC and with HepG2 was “inactive” in each case. Further, in the test on S. aureus RN4220, the growth inhibition call is “inactive”.
In the case of `COc1cccc(S(=O)(=O)N2C[C@H](O)COC[C@@H]3O[C@@H](CC(=O)N4CCOCC4)CC[C@H]32)c1`, the cytotoxicity call with HSkMC and in the test with HepG2 was “inactive” in each case. For the same compound, the growth inhibition call in the test on S. aureus RN4220 was “inactive”.
Consider `Cc1nc(C(N)=O)c(N)n1CCO`, for which the cytotoxicity call in the test on HSkMC and in the test with HepG2 was “inactive” in each case. Moreover, in the test on S. aureus RN4220, the growth inhibition call is “inactive”.
On to `C[C@H](CO)N1C[C@H](C)[C@H](CN(C)C(=O)Nc2ccc(C(F)(F)F)cc2)Oc2c(NS(=O)(=O)c3ccc(Cl)cc3)cccc2C1=O`, for which the cytotoxicity call with HSkMC and in the test with HepG2 was “active” in each case. Besides, the growth inhibition call in the test on S. aureus RN4220 is “inactive”.
On to `CN(C)CCCNC(=O)C[C@H]1CC[C@H]2[C@@H](COC[C@H](O)CN2C(=O)Nc2cc(Cl)cc(Cl)c2)O1`, for which the cytotoxicity call in the test on HSkMC and in the test with HepG2 was “inactive” each time. Further, the growth inhibition call with S. aureus RN4220 is “inactive”.
Consider `CC(C)NC(=O)N[C@H]1C=C[C@H](CC(=O)NCCCN(C)C)O[C@H]1CO`, for which the cytotoxicity call in the test with HSkMC and with HepG2 was “inactive” in each case. In the test on S. aureus RN4220, the growth inhibition call is “inactive”.
In the case of `COc1ccc(NC(=O)N(C)C[C@@H]2OCCCC[C@H](C)Oc3ccc(NS(=O)(=O)c4ccccc4)cc3C(=O)N([C@H](C)CO)C[C@H]2C)cc1`, the cytotoxicity call in the test with HSkMC and in the test on HepG2 was “inactive” each time. For the same compound, in the test on S. aureus RN4220, the growth inhibition call was “inactive”.
Consider `C[C@@H]1CN([C@H](C)CO)S(=O)(=O)c2ccc(-c3ccc(C(=O)N(C)C)cc3)cc2O[C@H]1CN(C)C(=O)C1CC1`, for which the cytotoxicity call in the test with HSkMC and in the test with HepG2 was “inactive” in each case. The growth inhibition call with S. aureus RN4220 is “inactive”.
As to `C[C@@H]1CN([C@H](C)CO)C(=O)c2cc(-c3ccncc3)cnc2O[C@@H]1CN(C)S(=O)(=O)c1ccc(F)cc1`, the cytotoxicity call in the test on HSkMC and in the test on HepG2 was “inactive” in each case. Also, in the test on S. aureus RN4220, the growth inhibition call was “inactive”.
For `C[C@@H]1CN([C@@H](C)CO)C(=O)c2cc(-c3ccc(C(=O)N(C)C)cc3)cnc2O[C@@H]1CN(C)C(=O)c1cccnc1`, the cytotoxicity call with HSkMC and in the test on HepG2 was “inactive” each time. The growth inhibition call in the test with S. aureus RN4220 is “inactive”.
Turning to `C[C@@H]1CN([C@@H](C)CO)C(=O)c2cc(NC(=O)C3CCCCC3)ccc2O[C@@H](C)CCCCO[C@H]1CN(C)CC1CCCCC1`, the cytotoxicity call in the test with HSkMC is “inactive”. The cytotoxicity call in the test on HepG2 was “active”. In addition, in the test with S. aureus RN4220, the growth inhibition call was “inactive”.
On to `CC(=O)N[C@@H](Cc1ccccc1)C(=O)NN`, for which the cytotoxicity call in the test on HSkMC (human skeletal muscle cells) and with HepG2 was “inactive” throughout. The growth inhibition call in the test with S. aureus RN4220 was “inactive”.
Take `COc1cccc(S(=O)(=O)Nc2ccc3c(c2)C(=O)N(C)C[C@@H](OC)[C@H](C)CN(C(=O)Cc2cccnc2)[C@@H](C)CO3)c1`: the cytotoxicity call with HSkMC and in the test with HepG2 was “inactive” each time. Also, the growth inhibition call with S. aureus RN4220 was “inactive”.

These data come from the antibiotic and cytotoxicity screens of Wong et al. (2023).
